According to PubChem BioAssay AID540317 (National Center for Advancing Translational Sciences (NCATS), 2011):
The campaign covered roughly 390,000 compounds. About 2,200 (0.56%) were called active. Inconclusive means that the source gave no clear call. Such entries were picked first, then a sample of the others. Calls come from the whole dose curve; as a rule, active = well fitted inhibition curve with a large enough effect; inconclusive = small, poorly fitted or top-dose-only effect; inactive = no such curve, though single readings can be large or run the other way. Potencies beside an inconclusive call are fits to weak or partial responses and may not hold up.

Biological target: Chromobox protein homolog 1 (Homo sapiens) (UniProt P83916)
Sequence of UniProt P83916 (P83916 whole entry, looked up): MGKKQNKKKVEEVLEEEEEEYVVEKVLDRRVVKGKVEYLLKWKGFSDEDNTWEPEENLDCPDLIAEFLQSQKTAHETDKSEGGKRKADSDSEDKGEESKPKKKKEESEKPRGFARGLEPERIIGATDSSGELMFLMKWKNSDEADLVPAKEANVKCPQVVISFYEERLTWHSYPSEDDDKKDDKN
Assay: HTS for Inhibitors of HP1-beta Chromodomain Interactions with Methylated Histone Tails; note: nearly all actives have a fitted effect of over 70% in size
Settings: AlphaScreen HP1-beta / biotin-H3K9me3 peptide binding; series mostly up to 114 µM
How it was run: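 Compound inhibition of the preformed complex between 50 nM HP1-beta and 50 nM biotinylated H3K9me3 peptide was read by AlphaScreen. Buffer was PBS pH 7.4 with 0.01% Tween-20. Incubations ran 30 min at room temperature, with 10 ug/mL donor/acceptor beads.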
Potency is the fitted concentration of half-maximal effect; tags give direction and shape of the fitted curve.

SMILES | Potency
O=C1c2ccccc2C(Nc2ccc3c(c2)OCCO3)N1c1ccc(Cl)cn1 (stereo unspecified) | inconclusive: 17.8 µM [inhibitor, single point]
C=CCc1c(C)nc2c(OC)cccc2c1Cl | inactive
COc1ccc(N2CCN(c3cc(C)nc4ccc(OC)cc34)CC2)cc1 | inconclusive: 50.1 µM [inhibitor, partial curve, poor fit]
N#CC1=C(SCc2ccccc2)NC(=O)CC1c1ccccc1 (stereo unspecified) | inactive
COc1ccc(C2=CC3=C(Br)C(=O)C(C)(OC(=O)c4cccs4)C(=O)C3=CO2)cc1 (stereo unspecified) | inconclusive: 50.1 µM [inhibitor, partial curve]
CN(C)/N=C/c1ccc(Sc2ccc([N+](=O)[O-])cc2[N+](=O)[O-])o1 | inconclusive: 28.2 µM [inhibitor, single point]
CCOC(=O)COc1ccc2nsnc2c1Cl | inactive
O=C1c2cc(Br)ccc2N(Cc2ccc(Br)cc2)S(=O)(=O)C1c1cc(Cl)c(Cl)cc1[N+](=O)[O-] (stereo unspecified) | inconclusive: 17.8 µM [inhibitor, full curve, poor fit]
COc1cc(C2Nc3cccc4cccc(c34)N2)cc(OC)c1O | inconclusive: 39.8 µM [inhibitor, single point]
O=[N+]([O-])c1cccc(C=NNc2ccccc2)c1 | inconclusive: 56.2 µM [inhibitor, single point]
O=C(Nc1ccc(N2CCOCC2)cc1)c1cccc(S(=O)(=O)N2CCC(Cc3ccccc3)CC2)c1 | inactive
CCc1cccc(C)c1Nc1c(-c2ccc(N(C)C)cc2)nc2ncccn12 | active: 17.8 µM
COc1ccc(C(=O)CCC(=O)Nc2ccc(N3CCCCC3)cc2)cc1OC | inconclusive: 35.5 µM [inhibitor, partial curve]
FC(F)(F)c1cccc(CN2CCSCC2)c1 | inconclusive: 50.1 µM [inhibitor, partial curve, poor fit]
CC1Cc2ccccc2N1C(=O)CN(C)CC(=O)Nc1ccc(F)cc1 (stereo unspecified) | inactive
CSc1ccc(C2c3[nH]c4ccccc4c3CCN2C(=O)c2ccnn2C)cc1 (stereo unspecified) | inactive
O=C(c1c(O)cc(O)cc1O)C1c2c(cc(O)c3c2O[C@H](c2ccc(O)cc2)[C@@H](O)C3)OC1c1ccc(O)cc1 (stereo partly specified) | inactive
N#Cc1cc2cc3ccccc3nc2n2c(=O)c3ccccc3nc12 | inconclusive: 89.1 µM [inhibitor, single point]
Cc1ccc(CNC(=O)CCS(=O)(=O)c2cc3c4c(c2)CCN4C(=O)CC3)cc1 | inactive
Cc1cccc(C2c3[nH]c4ccccc4c3CCN2C(=O)c2nn(C)c(=O)c3ccccc23)n1 (stereo unspecified) | inconclusive: 39.8 µM [inhibitor, full curve]
O=C1C(N2CCOCC2)=C(n2nnc3ccccc32)C(=O)c2ccccc21 | inconclusive: 28.2 µM [inhibitor, single point]
COc1ccc(Cc2noc(CN3CCCN(C4Cc5ccccc5C4)CC3)n2)cc1OC | inactive
[O-][n+]1c2ccccc2[n+]([O-])c2cc(O)ccc21 | active: 44.7 µM
CCN(CC)c1ccc(NC(=O)c2c(C)nn(-c3ccc(F)cc3)c2-n2cccc2)c(C)c1 | inactive

SMILES | Potency
COc1ccccc1C(=O)NC(CCSC)C(=O)NNC(=O)c1ccccc1O (stereo unspecified) | inactive
COc1cc(/C=C/C(C)=O)cc(OC)c1OC | inactive
CCOc1cc(C(c2c(C)[nH]n(-c3ccccc3)c2=O)c2c(C)[nH]n(-c3ccccc3)c2=O)ccc1O | inconclusive: 25.1 µM [inhibitor, partial curve]
COc1cc(OC)c2c(c1C(CCN1CCCC(C)C1)c1ccc(N(C)C)cc1)OC(=O)CC2c1ccc(N(C)C)cc1 (stereo unspecified) | inconclusive: 12.6 µM [inhibitor, full curve, poor fit]
CCN(CC)S(=O)(=O)c1ccc(NC(=O)Cn2ncc3c([nH]c4ccccc43)c2=O)cc1 | inactive
Cc1[nH]c2ccc(C(=O)N3CCN(c4ccccc4F)CC3)cc2c1C | inconclusive: 70.8 µM [inhibitor, partial curve]
CC(=O)c1cccc(OCc2cc(C(=O)N(C)Cc3ccc(C)o3)no2)c1 | inconclusive: 70.8 µM [inhibitor, partial curve]
CN(C)CCCn1c(SCC(=O)Nc2nc(-c3cccc(Br)c3)cs2)nc2ccccc2c1=O | inconclusive: 39.8 µM [inhibitor, partial curve]
CNCCCOc1ccc(C)cc1Br | inconclusive: 44.7 µM [inhibitor, partial curve]
O=C(CNCc1ccc(F)cc1)Nc1ccc(C(=O)N2CCCCC2)cc1 | inconclusive: 28.2 µM [inhibitor, single point]
Cc1ccc2nc(Cl)nc(-c3ccccc3)c2c1 | inactive
COc1ccc(N2CCN(C(=O)CSc3ncnc4scc(-c5ccc(C)cc5)c34)CC2)cc1 | inconclusive: 20 µM [inhibitor, partial curve, poor fit]
CC(OC(=O)CC1Sc2ccccc2NC1=O)C(=O)N(C)Cc1ccccc1 (stereo unspecified) | inactive
CCc1ccc2oc(-c3cc(N=Cc4cccc(OC)c4O)ccc3O)nc2c1 | inconclusive: 22.4 µM [inhibitor, partial curve, poor fit]
CN(CCc1nc2ccc(Cl)cc2[nH]1)Cc1nc(CC2CC2)no1 | inactive
Cc1ccc(Cl)cc1N1CCN(CC(O)COCc2ccco2)CC1 (stereo unspecified) | inconclusive: 44.7 µM [inhibitor, partial curve, poor fit]
CCN(CC)c1ccc(NC(=O)C2CC(=O)N(Cc3ccccc3)C2)cc1 (stereo unspecified) | inconclusive: 44.7 µM [inhibitor, partial curve]
CC(C(=O)Nc1ccccc1C(F)(F)F)N1CCN(C)CC1 (stereo unspecified) | inconclusive: 15.8 µM [inhibitor, partial curve, poor fit]
O=S(=O)(c1ccc(C2CCCCC2)cc1)N1CCN(c2cc(Cl)ccc2Cl)CC1 | inactive
CC(C)=CCC/C(C)=C/CNC(=O)C[C@H]1C[C@H](C(=O)N2CCOCC2)[C@@]2(C)c3[nH]c4cc(-c5ccco5)ccc4c3CCN2C1=O | inconclusive: 31.6 µM [inhibitor, partial curve]
O=C(CNCc1ccccc1)NCCCN1CCCC1=O | inconclusive: 56.2 µM [inhibitor, partial curve, poor fit]
COc1ccc(Cl)cc1NC(=O)CSc1sc2c(O)cc(=O)[nH]c2c1C#N | inactive
CN(C)c1nc(-c2ccc([N+](=O)[O-])cc2)cs1 | inconclusive: 56.2 µM [inhibitor, single point]
Cc1cccc(CSCCNC(=O)C2CCN(S(=O)(=O)Cc3ccccc3)CC2)c1 | inactive

SMILES | Potency
CN=c1scc(-c2ccc(F)cc2)n1/N=C/c1ccc(O)c(O)c1 | active: 39.8 µM
COc1cc2c(cc1OC)C(COc1ccc3c(C)cc(=O)oc3c1)N(C(=O)Cc1ccc(F)cc1)CC2 (stereo unspecified) | inactive
Cc1ccc(S(=O)(=O)N2CCCCC2)cc1NC(=O)CNc1ccc(C(F)(F)F)cc1 | inactive
Cc1cc(C(=O)NCC2COc3ccccc3O2)c2ccccc2n1 (stereo unspecified) | inactive
COC(=O)c1ccccc1NC(=O)C(C)n1nc(C)c2c(C)n(-c3ccccc3)nc2c1=O (stereo unspecified) | inactive
O=C(/C=C/c1ccccc1)NC(=S)NNS(=O)(=O)c1ccccc1 | inconclusive: 44.7 µM [inhibitor, partial curve]
Cc1sc2ncnc(N3CCN(CCOc4ccc(Cl)cc4)CC3)c2c1C | inconclusive: 3.55 µM [inhibitor, partial curve, poor fit]
O=[N+]([O-])c1cc(C(F)(F)F)ccc1NN=C1CCCC1 | inconclusive: 14.1 µM [inhibitor, full curve]
Cc1ncc(N=Nc2ccccc2Cl)c(-c2ccccc2)n1 | active: 15.8 µM
COc1ccc(C2=NOC(C(=O)NCc3ccccn3)C2)cc1 (stereo unspecified) | inconclusive: 39.8 µM [inhibitor, single point]
COCCn1nnnc1C(c1ccccn1)N1CCN(c2cc(Cl)ccc2C)CC1 (stereo unspecified) | inactive
NS(=O)(=O)c1ccc(CCNC(=O)/C=C/c2ccccc2[N+](=O)[O-])cc1 | inactive
N#CC1=C(N)NC(SCC(=O)c2ccc(Br)cc2)=C(C#N)C12CCCCC2 | inconclusive: 22.4 µM [inhibitor, single point]
COc1ccc(-n2c(Cc3cccn3C)nnc2SCC(=O)NCc2ccco2)cc1 | inconclusive: 89.1 µM [inhibitor, partial curve, poor fit]
Cc1ccc2c(c1)C(=O)C(=O)N2Cc1ccccc1 | inconclusive: 39.8 µM [inhibitor, partial curve, poor fit]
C=CCNC(=O)N1CCCC(C(=O)c2cccc(OC(C)C)c2)C1 (stereo unspecified) | inactive
CC[C@]12C(=O)N(C)C[C@H]([C@@H]3C(=O)N(Cc4ccccc4)C(=O)[C@@H]31)N2C(=O)c1ccc(C(F)(F)F)cc1 | inactive
COc1cccc(NC(=O)CSc2nc(=O)n(Cc3cccnc3)c3c2CCC3)c1 | inactive
Cc1ccc2c(C(=O)CN3CCN(c4ccccc4)CC3)c(C)[nH]c2c1 | inconclusive: 4.47 µM [inhibitor, partial curve, poor fit]
CC(C)c1ccc2c(c1)NC(c1ccc(F)cc1)=NC(c1cccs1)=N2 | inconclusive: 15.8 µM [inhibitor, full curve]
Cc1ccc(C)n1-c1ccc(N2CCOCC2)cc1 | inactive
COc1ccc2c(c1)c(C(O)CN1CCC(Cc3ccccc3)CC1)c(C)n2C (stereo unspecified) | inconclusive: 50.1 µM [inhibitor, partial curve]
CCCOc1ccc(N2C(=O)CC(NCc3ccc(S(N)(=O)=O)cc3)C2=O)cc1 (stereo unspecified) | inactive
